# Reference: publication PMC4336329 (PLoS ONE, 2015)
# Out of some 310,000 compounds screened, about 2,200 (0.71%) showed an effect of 50% or more. The effect is printed as a negative number. This is one part of the list.
# Molecular target: human ether-à-go-go-related gene (hERG) potassium channel (human, UniProt Q12809)
# Test: primary screen, population patch clamp on CHO cells stably expressing hERG
# Chain of human ether-à-go-go-related gene (hERG) potassium channel (Q12809 whole entry, looked up): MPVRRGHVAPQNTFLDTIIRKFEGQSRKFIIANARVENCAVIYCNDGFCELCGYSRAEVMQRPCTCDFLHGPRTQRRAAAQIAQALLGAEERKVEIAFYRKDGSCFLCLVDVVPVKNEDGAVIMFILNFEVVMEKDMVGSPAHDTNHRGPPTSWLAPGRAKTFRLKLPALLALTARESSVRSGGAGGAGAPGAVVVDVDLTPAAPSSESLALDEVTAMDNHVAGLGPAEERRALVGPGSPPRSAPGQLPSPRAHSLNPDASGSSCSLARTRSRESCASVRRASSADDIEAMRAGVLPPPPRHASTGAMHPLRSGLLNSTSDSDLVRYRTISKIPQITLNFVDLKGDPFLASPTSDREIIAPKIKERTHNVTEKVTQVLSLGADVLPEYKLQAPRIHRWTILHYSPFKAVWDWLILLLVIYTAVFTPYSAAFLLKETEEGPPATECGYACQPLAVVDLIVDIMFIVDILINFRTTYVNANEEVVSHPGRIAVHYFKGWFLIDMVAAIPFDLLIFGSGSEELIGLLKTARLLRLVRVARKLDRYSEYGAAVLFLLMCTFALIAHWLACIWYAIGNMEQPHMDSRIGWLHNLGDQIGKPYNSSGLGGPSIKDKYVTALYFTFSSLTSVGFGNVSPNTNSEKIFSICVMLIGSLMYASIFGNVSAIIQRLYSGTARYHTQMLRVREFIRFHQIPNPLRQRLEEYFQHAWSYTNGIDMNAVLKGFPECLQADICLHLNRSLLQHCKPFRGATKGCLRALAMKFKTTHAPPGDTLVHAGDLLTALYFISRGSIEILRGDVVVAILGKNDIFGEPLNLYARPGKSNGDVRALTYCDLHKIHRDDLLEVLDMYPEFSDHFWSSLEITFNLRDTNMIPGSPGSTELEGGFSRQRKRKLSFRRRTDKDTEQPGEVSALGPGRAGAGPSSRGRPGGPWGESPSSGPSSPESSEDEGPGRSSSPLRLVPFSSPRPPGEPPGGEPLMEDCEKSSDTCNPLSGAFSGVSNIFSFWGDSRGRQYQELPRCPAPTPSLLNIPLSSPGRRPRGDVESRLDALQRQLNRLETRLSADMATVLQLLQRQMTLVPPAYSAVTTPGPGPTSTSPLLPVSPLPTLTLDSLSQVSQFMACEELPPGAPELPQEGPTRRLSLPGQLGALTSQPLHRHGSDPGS
row,SMILES,"hERG current change (%, negative = inhibition) at 1uM [%]"
1,Cc1cc(C)n(-c2nc(SCC(=O)O)c3c4c(sc3n2)COC(C)(C)C4)n1,4.39
2,O=C(Nc1cc(S(=O)(=O)N2CCCCC2)ccc1Oc1ccccc1)C1=COCCO1,1.18
3,COC(=O)c1sccc1-c1ccc(/C=N/OC(=O)c2ccccc2)o1,9.65
4,Cn1c(SCC(=O)NNC(=O)c2ccccc2)nnc1C1CC1,11.6
5,O=[N+]([O-])c1ccc(NC(=S)N2CCCC2)cc1,11
6,O=C(Oc1c(Cl)cc(Cl)c2cccnc12)c1ccco1,6.64
7,O=S(=O)(Nc1ccncc1Cl)c1ccccc1,-1.28
8,Cc1nn(CC#N)c(=O)n1-c1ccc(F)cc1,13.5
9,CCCSc1nc2sc3c(c2c(=O)[nH]1)CCN(Cc1ccccc1)C3,11.1
10,CCN(CC)CCCNCC(=O)Nc1ccc(OC)c(Cl)c1.O=C(O)C(=O)O,0.937
11,CCOC(=O)c1c(C)n(C)c2ccc(OC(=O)c3ccoc3)cc12,13.4
12,N#C/C(=C\c1ccc(N2CCOCC2)o1)C(=O)NCC1CCCO1 (stereo not drawn),11.6
13,CCOC(=O)C1C(c2ccc3c(c2)OCO3)NC(=O)NC1(O)C(F)(F)F (stereo not drawn),13.9
14,O=c1cc(CN2CC=C(c3ccccc3)CC2)c2c(ccc3ccccc32)o1,4.72
15,CC(=O)c1cn(CCOc2ccc(F)cc2)c2ccccc12,1.98
16,Cc1ccccc1CN(c1ccc(C(=O)NCc2ccccn2)cc1)S(C)(=O)=O,-5.08
17,Cc1cc(C)c(NC(=O)CN2C(=O)NC3(CCCCC3)C2=O)c(C)c1,7.96
18,O=C1c2ccccc2CCC12N=NCC2c1ccc(Cl)cc1 (stereo not drawn),1.32
19,CC(=O)N1CCOc2ccc(S(=O)(=O)N3CCC(C(=O)NCc4ccccc4)CC3)cc21,13.7
20,Fc1ccc(-n2c(Cc3ccccc3)nnc2SCc2nc(-c3ccc(Cl)cc3)no2)cc1,6.92
21,O=S(=O)(c1ccc(NCc2ccc(F)cc2)nc1)N1CCCC1,5.02
22,Cc1ccc(CN(Cc2cccnc2)C(=S)Nc2cc(Cl)ccc2C)cc1,4.8
23,Cc1cccc(N(Cc2ccccc2)C(=O)CN2C(=O)NC3(CCCC3)C2=O)c1,5.93

row,SMILES,"hERG current change (%, negative = inhibition) at 1uM [%]"
1,Cc1ccc(Nc2ncnc(N)n2)cc1C,10.3
2,CC(=O)OC(C(=O)NC1CCCCC1)c1ccccc1Cl (stereo not drawn),8.56
3,COc1ccc(OC)c(NC(=O)c2ccc(-c3cccs3)cc2)c1,4.36
4,COc1ccc(CNc2ccc(C)c(C)c2)c(OC)c1OC.O=C(O)C(=O)O,14.4
5,Cc1cc(C)cc(N(C(C)C(=O)NCCC2=CCCCC2)S(C)(=O)=O)c1 (stereo not drawn),-0.283
6,Cc1onc(-c2ccccc2Cl)c1C(=O)N1CCC(C)CC1,6.97
7,CC(=O)N1CCC2(CC1)CC(=O)c1cc(OCC(=O)NCc3ccco3)ccc1O2,-3.27
8,CCSc1nc2n(n1)C(c1cccc(F)c1)C1=C(CCCC1=O)N2 (stereo not drawn),-10.9
9,N#Cc1c(-c2ccc(F)cc2)cc(C2CC2)nc1SCC(=O)c1cccs1,11.6
10,CC(C)Oc1ccc2c(=O)c(-c3ccccc3)coc2c1,15.9
11,C[C@@H]1C(=O)OC[C@H]1NC(=O)OCc1ccccc1,6.85
12,CCOc1ccc(-c2nnn(CC(=O)NCCc3c[nH]c4ccccc34)n2)cc1,6.94
13,O=[N+]([O-])c1ccc(N2CCCCC2)cc1,11.2
14,COc1cccc(NC(=S)NCCCN2CCOCC2)c1,11.1
15,CCOc1cccc2cc(-c3nnc(NCc4ccc5c(c4)OCO5)s3)c(=O)oc12,8.25
16,C/C(=N/NC(=O)c1cc(-c2ccc(Cl)s2)[nH]n1)c1ccco1,11.3
17,O=c1[nH]c(N/N=C/c2cc3c(cc2[N+](=O)[O-])OCO3)nc2ccccc12,14.8
18,COc1ccc(-c2n[nH]c(=S)n2-c2ccc(C)cc2C)cc1,11.7
19,Cc1nnc(SCC(=O)c2c[nH]c3ccccc23)n1C1CC1,4.62
20,CCCC(=O)Nc1ccc2c(c1)nc(CCN1CCCCC1)n2C,8.42
21,O=C(CN(c1cccc([N+](=O)[O-])c1)S(=O)(=O)c1ccccc1)NCc1ccccc1,-43.7
22,CN(C)CCCN1C(=O)c2oc3ccccc3c(=O)c2C1c1cccs1 (stereo not drawn),8.34
23,CCOC(=O)C(O)(c1ccc(N(CC)C(=O)OC)cc1)C(F)(F)F (stereo not drawn),7.09

row,SMILES,"hERG current change (%, negative = inhibition) at 1uM [%]"
1,CC(C)(C)NCc1cc(Cl)ccc1OCc1ccccc1F.Cl,-14.2
2,CC1(C)CC(=O)C=C(NNC(=O)c2ccccc2O)C1,-0.775
3,O=C(NC1CCCCC1)C(c1cccnc1)N(C(=O)c1csnn1)C1CCCC1 (stereo not drawn),9.74
4,C=CCOc1ccccc1CN1CCCC(CCC(=O)N(C)CCc2ccccn2)C1 (stereo not drawn),-3.73
5,CC1=CSC2=NC(=O)/C(=C\c3cccn3-c3ccccc3)C(=N)N12,6.1
6,CC(=O)CCc1ccc(Oc2nc(-c3cccnc3)nc3ccccc23)cc1,12.1
7,COc1ccc(CC(=O)Oc2ccc(F)cc2)cc1,9.37
8,COC(=O)c1sccc1NC(=O)CSc1cccc(Cl)c1Cl,4.53
9,COc1ccc2c(CC(=O)OCC(=O)Nc3cccc(C)c3)coc2c1,11.1
10,Cc1ccc(Cn2ccc(NC(=O)c3cc(C4CC4)on3)n2)cc1,9.57
11,COCc1nnc(NC(=O)CCSc2ccccc2)s1,6.94
12,CCOC(=O)C(C(=O)OCC)N(C#N)c1nc(C)cc(C)n1,2.33
13,O=C(Nc1ccccc1N1CCN(C(=O)c2ccc(Cl)cc2)CC1)c1ccc(Br)cc1,-4.26
14,N#C/C(=C/c1cccc(O)c1)C(=O)NCc1ccc(Cl)cc1,23.5
15,Cc1ccccc1NC(=O)COC(=O)c1ccc(S(=O)(=O)N2CCCC2)cc1,9.05
16,O=C(NC(=S)NCc1ccccc1)c1ccccc1Br,6.34
17,CN(CC(=O)Nc1cccnc1Cl)S(=O)(=O)c1ccc(Cl)cc1,9.06
18,COc1ccc2sc(N(CCN(C)C)C(=O)/C=C/c3cccs3)nc2c1.Cl,0.952
19,CCN(CC(=O)Nc1c(F)cccc1F)C(=O)Cc1csc(-c2ccc(OC)c(OC)c2)n1,4.29
20,Cc1cccc(S(=O)(=O)NCCC(=O)OCC(=O)Nc2ccc(C#N)cc2)c1,8.98
21,CC(=O)OC(C(=O)Nc1nccs1)c1ccccc1 (stereo not drawn),7.99
22,O=C(N/N=C1\CC2CC=CC12)c1ccc(Br)cc1 (stereo not drawn),10.7
23,Cc1ccc(CNC(=O)CN2CCN(Cc3ccc(Cl)cc3)C2=O)cc1,2.87

row,SMILES,"hERG current change (%, negative = inhibition) at 1uM [%]"
1,O=C1c2ccccc2C(=O)N1n1cccc1,11.1
2,CCCCc1c(O)nc(SCC(=O)N2CCCCC2)n(-c2ccccc2C)c1=O,5.79
3,Cc1ccc2[nH]c3c(c2c1)CN(C(=O)CN1CCCCC1)CC3,-0.784
4,COc1cccc(OC)c1C(=O)NC(C)CCc1ccccc1 (stereo not drawn),9.8
5,COc1ccccc1NC(=O)C(C)OC(=O)C1CC(=O)N(c2ccc3c(c2)OCCO3)C1 (stereo not drawn),11.2
6,Cl.OCCN1CCN(CC/C=C2/c3ccccc3Sc3ccc(Cl)cc32)CC1,-4.15
7,CCC(=O)N(Cc1cc(=O)[nH]c2ccccc12)c1ccc(OC)cc1,-2.38
8,CC(=O)c1c(O)c2cccc3c2n(c1=O)CCC3,14.8
9,CCOC(=O)c1sc(NC(=O)c2cc(-c3ccc(C)cc3)nc3ccccc23)c(C#N)c1C,8.49
10,COc1ccc(NC(=O)CC(=O)Nc2ccc(OC)cc2)cc1,8.34
11,CCn1c2ccccc2c2nnc(SCC(=O)c3ccccc3)nc21,11
12,O=C(COC(=O)c1ccccc1C(=O)c1ccccc1)Nc1ccc(SC(F)F)cc1,6.48
13,COc1cccc(CC(=O)Nc2ccc3c(c2)CCC3)c1,9.08
14,O=c1oc2cc([N+](=O)[O-])ccc2nc1/C=C(\O)c1cccc(Br)c1,7.34
15,COc1ccccc1NC(=O)C1CCCCN1S(=O)(=O)c1ccc(F)cc1 (stereo not drawn),0.408
16,Cc1ccccc1OCc1nnc(SCC(=O)N2CCc3ccccc32)n1C,5.32
17,O=[N+]([O-])c1c(NCCO)cc(N2CCN(Cc3ccc4c(c3)OCO4)CC2)c2nonc12,0.979
18,N#CCCn1c(SCC(=O)Nc2ccc(N3CCOCC3)cc2)nc2ccccc21,3.82
19,COc1ccc(NC(=O)c2ccccc2)c([N+](=O)[O-])c1,13.2
20,Cc1c(C(=O)Nc2ccc3c(c2)OCCO3)oc2ccc(Br)cc12,10.5
21,Cc1cccn2c(=O)c(/C=C(\C#N)C(N)=O)c(N3CCN(Cc4ccc5c(c4)OCO5)CC3)nc12,0.0831
